# Measurements from PubChem BioAssay AID1508624 (National Center for Advancing Translational Sciences (NCATS), 2021).
# About 120 (0.25%) of roughly 48,000 compounds were called active. Another 4% or so got no clear call; they are omitted. Calls follow the shape of the dose curve; as a rule, active = well fitted activation curve with a large enough effect; inconclusive = small, poorly fitted or top-dose-only effect, or another doubt; inactive = no such curve, though single readings can be large or run the other way. This is one part of the list.
# Experiment: Primary qHTS for Identification of Small Molecule Activators of Huntingtin-Antisense Promoter Activity; also: nearly all actives have a fitted effect of over 55% in size
# Conditions: HEK293 HTT-AS promoter firefly luciferase reporter (activity 0% = vehicle and -100% = no light), 24 h; series mostly up to 57.5 µM; activity change, positive = activation: at the top concentration
# Summary of the method: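 Quantitative HTS used concentration series of up to 57.5 uM final on HEK293 luciferase reporter cells, 24 h at 37 degrees C. Readout was Dual-Glo firefly luminescence.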
row,SMILES,"activity change, positive = activation"
1,CCCNC(=O)CSc1nc(-c2ccc(OC)cc2)cc(C(F)(F)F)n1,inactive: -9.41%
2,COc1ccccc1N1CCN(CC(O)COc2cc(OC)c(OC)c(OC)c2)CC1 (stereo not given),inactive: -6.65%
3,O=C(CC1N=C2c3ccccc3N=C(SCC(=O)Nc3ccc(F)cc3)N2C1=O)NCc1cccs1 (stereo not given),inactive: -6.27%
4,CNCC[C@@H](Oc1ccccc1C)c1ccccc1,inactive: -12.5%
5,CC1=Nc2cc(C(=O)NCCc3ccc(Cl)cc3)ccc2Sc2c(C)ccc(C)c21,inactive: -42.1%
6,CCOC(=O)CC(=O)CSc1nc2ccccc2c(=O)n1CCc1ccc(S(N)(=O)=O)cc1,inactive: -40.6%
7,CC1CCCCN1CCCNC(=O)c1cc(Sc2ccc(Cl)cc2)nc2ccccc12 (stereo not given),inactive: -14.1%
8,CC(=O)Nc1ccc(NC(=O)CCS(=O)(=O)c2ccc3c(c2)CC(=O)N3C)cc1,inactive: -17.4%
9,COc1ccccc1CNC(=O)c1oc2ccc3c(c2c1C)C(=O)CC(C)(C)O3,inactive: 22.7%
10,CCOc1ccc(-n2nc3ccc(NC(=O)c4ccc(-c5cccc(Cl)c5)o4)cc3n2)cc1,inactive: -67.2%
11,COc1ccccc1Cc1nc2ccccc2nc1SCC(=O)NCc1ccccc1Cl,inactive: 12.3%
12,CN1CCc2nc3sc(C(=O)Nc4ccccc4C(F)(F)F)c(N)c3cc2C1,inactive: -5.96%
13,CCCC1=Nc2cc(C(=O)N3CCC(C)CC3)ccc2Sc2ccc(C)cc21,inactive: -14.9%
14,CC1=C(C(=O)OC2CCCCCC2)C(c2cccc(Cl)c2)CC(=O)N1 (stereo not given),inactive: -48.5%
15,Cc1ccc2c(=O)c(C(=O)c3cccc(Cl)c3)cn(CC(=O)Nc3ccccc3C(F)(F)F)c2n1,inactive: -8.6%
16,CCOC(=O)c1cccc2c1N[C@@H](c1ccc(F)cc1)[C@H]1CC=C[C@@H]21,inactive: -17.7%
17,Cc1ccc(CCNC(=O)c2ccc3c(=O)n(-c4ccccc4)c(=O)[nH]c3c2)cc1,inactive: 12.6%
18,Cn1cc(S(=O)(=O)N2CCCCC2)cc1C(=O)Nc1cccc(C#N)c1,inactive: -17.4%
19,O=C(CCCCC(=O)Nc1c(I)cc(I)c(C(=O)O)c1I)Nc1c(I)cc(I)c(C(=O)O)c1I,inactive: 2.7%
20,CCCN(C(=O)Cn1ncc2c([nH]c3ccc(C)cc32)c1=O)c1ccccc1C,inactive: -18%
21,COc1cccc(N2CC(NC(=O)/C=C\c3ccc(OC)c(OC)c3)CC2=O)c1 (stereo not given),inactive: -6.25%
22,CCC(C)NC(=O)CN1C(=O)COc2ccc(S(=O)(=O)N3CCOCC3)cc21 (stereo not given),inactive: -21.3%
23,CCOc1ccccc1NC(=O)c1c(NCc2sccc2C)sc2c1CCC(C)C2 (stereo not given),inactive: -21.9%
24,O=C(O)c1ccc(-c2cc3cccnc3c(-c3ccc4nonc4c3)n2)cc1,inactive: -19.1%

row,SMILES,"activity change, positive = activation"
1,COc1ccc(NC(=O)Cn2cc(S(=O)(=O)Cc3ccc(F)cc3)c3ccccc32)cc1OC,inactive: -41.3%
2,Cc1c(CN2CCN(S(C)(=O)=O)CC2)sc2c(N3CCOCC3)nc(-c3cnc(N)nc3)nc12,inactive: -44.9%
3,CCOC(=O)C1CCC(CN(Cc2cccc(Br)c2)S(=O)(=O)c2ccc(Cl)cc2)CC1 (stereo not given),inactive: -30.3%
4,CCOC(=O)N1CCc2c(sc3c2C(=O)NC(c2ccccc2F)N3)C1 (stereo not given),inactive: -12.5%
5,COc1ccc(N2CC(NC(=O)COc3ccc4ccccc4c3)CC2=O)cc1OC (stereo not given),inactive: -7.2%
6,CCN1C(=O)C(Cc2nc3ccccc3c(=O)n2-c2ccc(OC)cc2)c2ccccc21 (stereo not given),inactive: -1.01%
7,CCCCC1CCC(C(=O)N2CC(=O)Nc3ccc(Cl)cc3C2c2ccc(F)cc2)CC1 (stereo not given),inactive: -21.4%
8,Cc1ccc(-n2c(=O)c3c4c(sc3n(CC(=O)Nc3ccccc3C)c2=O)CCCCC4)cc1C,inactive: -19.3%
9,COc1ccccc1CNc1nccn(-c2ccccc2)c1=O,inactive: 3.52%
10,CCC(C)NC(=O)c1sc2nc(C)c(C(=O)Nc3ccc(C)cc3C)c(-c3ccccc3Cl)c2c1N (stereo not given),inactive: 0%
11,CCN(CC)c1ccc(-c2nc(-c3ccco3)no2)cc1[N+](=O)[O-],inactive: -46.3%
12,COc1ccc(NC(=O)c2cnc(N3CCCCC3)c3ccccc23)cc1Cl,inactive: -30%
13,O=C(O)CCC1CCC(c2cc(F)ccc2F)(S(=O)(=O)c2ccc(Cl)cc2)CC1 (stereo not given),inactive: -15.9%
14,CCOc1ccccc1NC(=O)c1ccc2c(Cl)c3c(nc2c1)CCCC3,inactive: 7.24%
15,Nc1nc(=O)n([C@H]2CSC(CO)O2)cc1F (stereo not given in full),inactive: -8.34%
16,CCOc1ccc(-c2nnc(SCC(=O)NCCc3ccccc3)nc2-c2ccc(OCC)cc2)cc1,inactive: -0.362%
17,COc1cccc(CNc2nc3c(-c4cccc(C)c4)nnn3c3ccccc23)c1,inactive: 13.2%
18,CC(=O)Nc1ccc(NC(=O)CCC(=O)c2ccc(C)cc2)cc1,inactive: -0.398%
19,O=C(OCc1cc(=O)n2nc(-c3cccs3)sc2n1)c1ccccc1Br,inactive: 5.81%
20,Cc1cc(NC(=O)C(C)(C)Oc2ccc(Cl)cc2)cc(-c2nc3ncccc3o2)c1O,inactive: -7.63%
21,Cc1cc(C)cc(C(=O)Nc2nnc3n2CCS3)c1,inactive: 2.3%
22,CCOC(=O)c1ccc(NC(=O)CSc2nccn2Cc2ccc(OC)cc2)cc1,inactive: -27.3%
23,O=C(CSc1ncc2c(n1)-c1cc(Cl)ccc1N(Cc1ccccc1F)S2(=O)=O)Nc1cccc(C(F)(F)F)c1,inactive: -16.5%
24,CCCCCN1C(C(=O)c2ccccc2)=C(NC(C)=O)c2ccccc2S1(=O)=O,inactive: -36.9%

row,SMILES,"activity change, positive = activation"
1,COC(=O)c1cc(NC(=O)c2ccc3c(c2)N(Cc2cccc(Cl)c2)C(=O)c2ccccc2S3=O)cc(C(=O)OC)c1 (stereo not given),inactive: -14.5%
2,CC(=O)c1cccc(NC(=O)c2c(C)nn(-c3ccc(F)cc3)c2-n2cccc2)c1,inactive: -28.3%
3,Cc1cc2ccccc2n2c(SCC(=O)Nc3cccc(C(F)(F)F)c3)nnc12,inactive: -8.46%
4,CCCn1c2ccccc2c2cnn(CC(=O)Nc3ccc(C)cc3Br)c(=O)c21,inactive: -16.3%
5,CNc1oc(-c2ccc(COc3ccc(C)cc3)o2)nc1C#N,inactive: -11%
6,COc1ccc(OCc2nc3c4c(-c5ccc(OC)cc5)c(-c5ccc(OC)cc5)oc4ncn3n2)cc1,inactive: -6.14%
7,CCOc1ccccc1NC(=O)c1cnc(N2CCOCC2)c2ccccc12,inactive: -8.1%
8,COc1ccc(C)cc1NC(=O)CCNS(=O)(=O)c1cccc2nonc12,inactive: 0.415%
9,CCc1ccc(NC(=O)c2sc3nc(C)c(Cl)c(C)c3c2NC(=O)c2ccccc2)cc1,inactive: 6.76%
10,Cc1cccc(CNC(=O)c2sc3ncnc(N(C)C4CCCCC4)c3c2C)c1,inactive: -2.55%
11,Cc1nn(-c2ccccc2)c2nc(C3CC3)cc(C(=O)NCc3ccccc3Cl)c12,inactive: -9.44%
12,CCN(CC)c1nc(-c2ccccc2Cl)c2cc(Br)ccc2n1,inactive: -5.35%
13,CC(C)Nc1ccc(-c2nc(-c3ccccn3)no2)cc1[N+](=O)[O-],inactive: 9.95%
14,Cc1cc(Cl)ccc1OCC(=O)N(Cc1ccc(N(C)C)cc1)CC1CCCO1 (stereo not given),inactive: -36.2%
15,COc1ccc(CCNC(=O)c2cc(S(=O)(=O)N3CCCC(C)C3)cn2C)cc1OC (stereo not given),inactive: -28.3%
16,O=C(O)c1ccc2c(c1)N(Cc1ccc(F)cc1Cl)C(=O)c1ccccc1S2,inactive: -8.75%
17,COc1ccc(NC(=O)CCS(=O)(=O)c2nc(-c3ccc4c(c3)OCO4)cc(C(F)(F)F)n2)c(OC)c1,inactive: -12.5%
18,CC(CNC(=O)CCCn1c(=O)c2cccn2c2ccccc21)c1ccccc1 (stereo not given),inactive: -25%
19,CCN(C(=O)c1cnc(N2CCOCC2)c2ccccc12)c1cc(C)ccc1C,inactive: -14.8%
20,CC(C)N(Cc1ccccc1)C(=O)CN1C(=O)COc2ccc(S(=O)(=O)N3CCCCCC3)cc21,inactive: -29.1%
21,O=C(c1ccc2c(c1)N(Cc1ccccc1)C(=O)c1ccccc1S2=O)N1CCC(Cc2ccccc2)CC1 (stereo not given),inactive: -40.2%
22,Cc1ccc2c(c1)c(=O)c(S(=O)(=O)c1ccc(C)c(C)c1)cn2CC(=O)Nc1ccccc1,inactive: -10.6%
23,CCc1cccc(C)c1NC(=O)C1=C(C)C(=O)OC12CCC(C)CC2 (stereo not given),inactive: -6.22%
24,CCCOc1ccc(C2=NC(c3ccc(F)cc3)=Nc3ccc(OC)cc3N2)cc1,inactive: -3.75%

row,SMILES,"activity change, positive = activation"
1,CC[N+](CC)(CCNC(=O)C(=O)NCC[N+](CC)(CC)Cc1ccccc1Cl)Cc1ccccc1Cl,inactive: -1.79%
2,COc1ccccc1Nc1ncc(C(=O)Nc2ccc(OC)c(OC)c2)c2ccccc12,inactive: -10%
3,Nc1nccc(-c2ccc3noc(-c4ccc(Cl)cc4)c3c2)n1,inactive: -24%
4,COc1ccccc1CNC(=O)c1cnc2sc(N3CCOCC3)nn2c1=O,inactive: -6.07%
5,COc1ccc(N2CCN(C(=O)Cn3nc(Cc4cccnc4)c4ccccc4c3=O)CC2)cc1,inactive: -33.5%
6,COc1ccc(NC(=O)NCC2CCN(Cc3ccccc3F)CC2)c(OC)c1,inactive: 7.98%
7,COC(=O)c1cc(S(=O)(=O)N2CCN(c3ccc(F)cc3)CC2)cn1C,inactive: -10.6%
8,COc1ccccc1CNC(=O)c1ccc2c(c1)CCN2S(=O)(=O)c1ccc(Cl)cc1,inactive: 3.23%
9,COc1ccc2nc(N(Cc3cccnc3)C(=O)COc3ccccc3)sc2c1,inactive: 23.7%
10,Cn1cc(C(=O)NCCc2ccc(Cl)cc2)c(=O)c2cc(S(=O)(=O)N3CCCCC3)ccc21,inactive: -7.45%
11,COC(=O)c1ccc(Cn2nnc3c(=O)[nH]c(C4CCCN(S(=O)(=O)c5ccccc5)C4)nc32)cc1 (stereo not given),inactive: 14.2%
12,O=S(=O)(c1ccc(-c2cnc(C3CC3)o2)cc1)N1CCN(c2cccc(Cl)c2)CC1,inactive: 4.59%
13,CCOc1ccccc1C(=O)Nc1cc(-c2ccc(C)cc2)no1,inactive: 39.7%
14,Cc1cccc(S(=O)Cc2ccc(C(=O)NC3CCCCCC3)o2)c1 (stereo not given),inactive: -11.5%
15,Cc1ccc(C(=O)Nc2ccc(C(=O)OCc3cc(=O)n4c5c(sc4n3)CCCC5)cc2)cc1,inactive: -9.92%
16,Cc1c(-c2ccccc2)n(-c2ccccc2O)c2nc3c(c(=O)n(C)c(=O)n3C)n12,inactive: -44.2%
17,COc1cc(OC)c(NC(=O)N2CCN3CCCCC3C2)cc1Cl (stereo not given),inactive: 15.5%
18,CC(C)(C)c1cc(C(C)(C)C)c2oc(=O)c(-c3nc4ccc(C(=O)O)cc4[nH]3)cc2c1,inactive: -23.9%
19,CCOC(=O)c1ccccc1NC(=O)CSc1cc(C)[nH]c(=O)n1,inactive: -9.3%
20,COc1ccc(Cl)cc1NC(=O)CCN1C(=O)c2ccccc2Sc2ncccc21,inactive: -20.5%
21,CC(=O)N1CCc2cc(S(=O)(=O)NC(CC(C)C)C(=O)NCCc3ccccc3)ccc21 (stereo not given),inactive: 15%
22,CC(C)C(=O)N1c2nc(C(C)C)nn2C2(CCCCC2)[C@@H]2CCCC[C@@H]21,inactive: -12.4%
23,Cc1cc(C)c2c(=O)cc(CSc3nnc(-c4ccccc4)n3C)[nH]c2c1,inactive: -23%
